Experimental data from the supplement of paper PMC10126150.
Sequences with one replicate were seen in a single cluster, so their values are uncertain.

system: ATP; assay: switch fluorescence ratio, 500 uM ATP over buffer (Cy3 cluster intensity, sum of 5 cycles each) (fold (ratio)); higher = stronger signal-on switching upon ATP binding; sequences stand for … in TCGTCGGCAGCGTCAGATGTGTATAAGAGACAGTTTTTTTTTTTTTTTTTTTTTTTTT…TC; conditions: aptamer strand: ATP DNA aptamer (quencher-CACCTGGGGGAGTATTGCGGAGGAAGG + anchor), 100 nM annealed; ATP concentration: 500 uM; one replicate
Summary of the method: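 After annealing to 100 nM quencher-labelled ATP aptamer, Cy3-labelled switching-strand clusters on a modified Illumina MiSeq flow-cell were imaged in selection buffer. A second image followed after 15 min with 500 uM ATP at 22 °C, and five such buffer/ATP cycles were done, each separated by NaOH stripping and re-annealing. The fluorescence ratio, averaged per switch-domain sequence, is summed target-cycle over summed buffer-cycle Cy3 intensity per cluster, with clusters outside 100-1000 RFU excluded.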
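Further: ATP exposure 15 min at 22 °C before imaging.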

Sequence	switch fluorescence ratio
TTACGGTGGG	0.974
TTACGTCGGT	1.1
TTACGTGCTT	1.19
TTACGTGGTA	0.971
TTACGTTGTT	0.988
TTACTCAGCT	1.24
TTACTGTCGC	1.06
TTACTTGAC	1.12
TTAGAAAACA	1.03
TTAGAACA	0.993
TTAGAACAA	1.04
TTAGAAGCAC	1.18
TTAGAATGGT	1
TTAGAATTTG	0.943
TTAGACGCGT	1.07
TTAGACGTCC	1.04
TTAGAGAGTA	0.987
TTAGAGCATG	0.996
TTAGAGTAGA	0.996
TTAGATCGAT	0.967
TTAGATTGT	1.02
TTAGATTTAT	1.05
TTAGCATTC	1.55
TTAGCGATAG	1.23
TTAGCGCTT	0.983
TTAGCTCCGG	1.04

Sequence	switch fluorescence ratio
TTAGCTTACT	1.22
TTAGGAATTC	1.09
TTAGGACGGA	1.03
TTAGGAGAAC	1.02
TTAGGAGGTA	0.966
TTAGGCATCA	1.01
TTAGGCCTCT	0.959
TTAGGCGATG	1.02
TTAGGCTTG	1.01
TTAGGGATTT	1
TTAGGGTAT	1.04
TTAGGTATGA	1.01
TTAGGTGCGC	1.01
TTAGTACTCC	1.54
TTAGTACTT	0.96
TTAGTACTTT	1.02
TTAGTAGGCT	0.971
TTAGTATGTG	1.02
TTAGTCGGTG	1.06
TTAGTCTAAG	1.01
TTAGTGAGAA	1.02
TTAGTGGAGT	0.953
TTAGTTAACA	0.993
TTAGTTCACC	1.03
TTATAAATAA	1.03
TTATAACCCC	1.1

Sequence	switch fluorescence ratio
TTATAACTTG	1.01
TTATACTTAT	1.02
TTATAGATTC	0.964
TTATAGTGAG	1.01
TTATATACCT	1.04
TTATATCACC	1.05
TTATATCGGA	0.962
TTATATGATG	0.977
TTATCAAGCT	0.968
TTATCAGATA	0.988
TTATCATGCG	0.985
TTATCCGCG	1.42
TTATCGGCTG	0.99
TTATCGGT	0.996
TTATCTAACT	0.993
TTATCTACAA	1.05
TTATCTCGAC	1.04
TTATCTCGGC	1.06
TTATCTGGTA	1.01
TTATGAACCC	1.05
TTATGAACTC	1.01
TTATGATTAC	1.02
TTATGCATAG	0.999
TTATGCCTGG	0.991
TTATGCGGGT	1.03
TTATGGATCC	0.974

Sequence	switch fluorescence ratio
TTATGGATTG	1.04
TTATGGCCGG	0.974
TTATGGGATA	1
TTATGGGTT	1.01
TTATGTATCT	0.971
TTATTACAAG	1
TTATTCACCG	1.07
TTATTCACGC	1.02
TTATTGCATT	0.989
TTATTGCTGC	1.01
TTATTGGCTG	0.935
TTATTTGATG	1.03
TTATTTGGG	1
TTATTTGTG	1.03
TTATTTTG	0.956
TTATTTTGAA	1.03
TTATTTTGAT	0.931
TTCAAAAATT	0.999
TTCAAAAGTT	1.02
TTCAAAGAAT	1.01
TTCAAATCTA	1.03
TTCAAATGG	1.09
TTCAACAGAC	1.03
TTCAACGTGT	1.05
TTCAACGTTG	1.03
TTCAACTCGG	1.02

Sequence	switch fluorescence ratio
TTCAAGAGCG	1.03
TTCAAGTAG	1.02
TTCAAGTCGC	0.966
TTCAAGTCGG	1.04
TTCAAGTCTA	0.962
TTCAATAACG	1
TTCAATCAT	1.04
TTCAATCGCT	1.02
TTCACAAGAA	1.01
TTCACATAAG	0.998
TTCACATGAT	1.02
TTCACGTGGT	0.962
TTCACGTTGG	0.977
TTCAGATGT	1.01
TTCAGCGGCT	1
TTCAGGGGT	1.08
TTCAGGGTG	1.09
TTCAGGTGTA	1.45
TTCAGTATTA	1.09
TTCAGTTCTC	1.14
TTCATAAGA	1.02
TTCATAAGAG	0.975
TTCATAATTC	1.03
TTCATACATG	1.03
TTCATCAGGG	1.04
TTCATGGGTG	1.03

Sequence	switch fluorescence ratio
TTCATGTAGA	0.991
TTCATGTTAT	0.981
TTCATTCAAA	0.975
TTCATTGCAG	1.05
TTCATTTAAG	0.995
TTCATTTTCT	0.942
TTCCAAATTA	1.01
TTCCACTAAC	1.15
TTCCAGAATC	1.07
TTCCAGAGGT	0.994
TTCCAGGGGC	1.02
TTCCAGTCTC	0.983
TTCCATCAAT	1.04
TTCCATCGG	1.04
TTCCATTG	1.01
TTCCCCGCCT	2.46
TTCCCCTCGT	1.02
TTCCCGAGAA	1.02
TTCCCGTAAT	2.11
TTCCCTAACA	0.958
TTCCCTTTGT	0.996
TTCCCTTTT	0.966
TTCCGCCCAT	1.48
TTCCGCCGGT	1.18
TTCCGGATAT	1.03
TTCCGGGCGA	2.96

Sequence	switch fluorescence ratio
TTCCGTCTTT	0.997
TTCCTCACAC	1.17
TTCCTCATTG	1.08
TTCCTGATGG	0.974
TTCCTGGGCG	1.07
TTCCTGGGGT	1
TTCCTGGTTT	0.994
TTCCTTAAC	0.975
TTCCTTTCGT	1.04
TTCGAATATA	0.992
TTCGAGAGAC	1.49
TTCGAGCGGG	0.995
TTCGAGGATA	0.994
TTCGATAGTG	1.02
TTCGATGGTT	0.988
TTCGATGTG	0.981
TTCGATGTTA	1.02
TTCGCACCCT	1.13
TTCGCATGGG	1.15
TTCGCATTAG	3.59
TTCGCCAATT	0.996
TTCGCCTGGG	0.954
TTCGCGATTG	1.11
TTCGCGATTT	1.08
TTCGCGCCGC	1.02
TTCGCTAATT	1.02

Sequence	switch fluorescence ratio
TTCGCTATAG	3.91
TTCGCTTTTG	0.958
TTCGGACGGC	0.998
TTCGGACTGA	1.1
TTCGGATCCC	1.08
TTCGGCTAC	1.81
TTCGGCTTCT	0.947
TTCGGGACTG	0.936
TTCGGGAGTC	1.02
TTCGGTACG	0.987
TTCGGTATCG	1.03
TTCGGTGCG	0.962
TTCGGTGTCA	1.01
TTCGGTTACT	0.997
TTCGTACGGC	1.04
TTCGTCCTAT	0.978
TTCGTCGGGT	0.975
TTCGTGCTGG	0.985
TTCGTGGGTA	1.05
